Consider 80 compounds from the supplement of paper PMC10670038.

“And” between values parts separate entries of the source, which are not always exact repeats. Equal entries are not always repeated. Structures can show the parent of a compound that is named as a salt. ± gives the standard deviation of the averaged measurements. Over roughly 2,000 compounds, “relative cell viability vs DMSO, compound alone” has its median near 1.1; the lowest 2% begin near 0.29. This is one part of the list.

The subject of the assay is TE10. Kind of assay: relative cell viability vs DMSO, compound alone (fraction); TE10 is an esophageal squamous carcinoma line; higher = less cytotoxic. As to conditions: 2 µM; 48 h. As for the experimental part:
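TE10 ESCC cells (1,000/well, 384-well plates) were treated with Selleck bioactive library compounds at 2 uM alone for 48 h. Viability was read by CellTiter-Glo and expressed relative to DMSO wells. Two technical replicates (A, B).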
With `CC1(C)O[C@@H]2[C@@H](CO[C@@]3(COS(N)(=O)=O)OC(C)(C)O[C@@H]23)O1` [Topiramate], the relative cell viability stood at 1.29 ± 0.052.
The value for `NS(=O)(=O)Cc1noc2ccccc12` [Zonisamide] was 1.28 ± 0.015; that for `C=CCc1ccc(O)c(-c2cc(CC=C)ccc2O)c1` [Magnolol] was 1.13 ± 0.043.
The value for `Cc1cn([C@H]2C[C@H](N=[N+]=[N-])[C@@H](CO)O2)c(=O)[nH]c1=O` [Zidovudine] was 1.02 ± 0.064; that for `COc1ccc([C@@H]2Sc3ccccc3N(CCN(C)C)C(=O)[C@@H]2OC(C)=O)cc1` [Diltiazem HCl] was 0.817 ± 0.068; that for `CC(=O)c1cc([N+](=O)[O-])c(Sc2ccc(F)cc2F)s1` was 0.877 ± 0.044.
Compound `Cc1ccc2nc(NCCN)c3ncc(C)n3c2c1` registered a relative cell viability of 0.98 ± 0.045.
With `Cc1c(NC(=O)OC[C@@H]2COCCN2)cn2ncnc(Nc3ccc4c(cnn4Cc4cccc(F)c4)c3)c12` the figure was 1.23 ± 0.12.
With `COc1ccc(C[C@H](NC(=O)[C@H](C)NC(=O)CN2CCOCC2)C(=O)N[C@@H](Cc2ccccc2)C(=O)[C@@]2(C)CO2)cc1` the figure was 0.0804 ± 0.0014; with `CC(C[N+](C)(C)C)OC(N)=O` (stereo not given) [Bethanechol chloride], 0.956 ± 0.08.
In the case of `COc1ccc(CCc2nc3cc(-c4c(C)noc4C)ccc3n2C[C@H](C)N2CCOCC2)cc1Cl`, the relative cell viability was 1.03 ± 0.041.
With `O=C(O)c1cc2cccc([N+](=O)[O-])c2[nH]1` the figure was 0.971 ± 0.044; with `CCNC(=O)c1noc(-c2cc(C(C)C)c(O)cc2O)c1-c1ccc(CN2CCOCC2)cc1`, 0.588 ± 0.017; with `CC(=O)C1=C(O)C=C2Oc3c(C(C)=O)c(O)c(C)c(O)c3C2(C)C1=O` (single isomer, unassigned; (+)) [(+)-Usniacin], 1.15 ± 0.034.
As for `CNCc1ccc(-c2[nH]c3cc(F)cc4c3c2CCNC4=O)cc1`, the relative cell viability amounted to 1.26 ± 0.031.
The value for `CCCNC(C)C(=O)Nc1c(C)csc1C(=O)OC` (stereo not given) [Articaine HCl] was 1.16 ± 0.024; that for `Cc1cnc(-c2cnc(NCCNc3ccc(C#N)cn3)nc2-c2ccc(Cl)cc2Cl)[nH]1` was 1.24 and 1.36.
The value for `CC1(C)[C@@H](O)CC[C@]2(C)[C@H]3C(=O)C=C4[C@@H]5C[C@@](C)(C(=O)O)CC[C@]5(C)CC[C@@]4(C)[C@]3(C)CC[C@@H]12` [Enoxolone] was 1.03 ± 0.032; that for `CC1(C)CC(=O)c2c(C(F)(F)F)nn(-c3ccc(C(N)=O)c(N[C@H]4CC[C@H](OC(=O)CN)CC4)c3)c2C1` was 0.5505 ± 0.0039.
Compound `C[C@H]1COC2(CCN(c3nc(=O)c4cc(C(F)(F)F)cc([N+](=O)[O-])c4s3)CC2)O1` (racemic) [BTZ043 Racemate] registered a relative cell viability of 1.08 ± 0.042.
With `O=C(O)c1ccc(-n2nc(-c3ccccc3O)nc2-c2ccccc2O)cc1` [Deferasirox] the figure was 1.095 ± 0.0019; with `COc1c(C)c2c(c(O)c1C/C=C(\C)CCC(=O)OCCN1CCOCC1)C(=O)OC2` [Mycophenolate Mofetil], 0.857 ± 0.028; with `CN1C(C(=O)Nc2ccccn2)=C(O)c2ccccc2S1(=O)=O` [Piroxicam], 1.13 ± 0.032.
The value for `NCCS` [Cysteamine HCl] was 1.07 ± 0.033; that for `COCCOC(=O)C1=C(C)NC(C)=C(C(=O)OC(C)C)C1c1cccc([N+](=O)[O-])c1` (stereo not given) [Nimodipine] was 1.102 ± 0.0064; that for `O=C(NCc1cccc(O)c1)Nc1nc(-c2ccncc2)cs1` was 1.115 ± 0.011.
The value for `COc1cc(C(=O)NC2CCN(C)CC2)ccc1Nc1ncc2c(n1)N(C1CCCC1)CC(F)(F)C(=O)N2C` was 0.974 ± 0.05; that for `COC(=O)CCc1ccc(OCC(O)CNC(C)C)cc1` (stereo not given) [Esmolol HCl] was 0.998 ± 0.042.
Compound `C[C@H](NC(=O)CCc1nc2ccccc2c(=O)[nH]1)c1ccccc1` displayed a relative cell viability of 0.9552 ± 0.0032.
With `NCC(=O)CCC(=O)O` [5-Aminolevulinic acid HCl] the figure was 1.01 ± 0.051; with `CN1CCC(CNc2ccc3ncc(-c4cccc(OC(F)(F)F)c4)n3n2)CC1` [SGI-1776 free base], 1.046 ± 0.0074; with `Cc1ccc(Sc2ccccc2N2CCNCC2)c(C)c1`, 1.07 ± 0.011.
`Cc1ccc(C)c(OCCCC(C)(C)C(=O)O)c1` [Gemfibrozil] displayed a relative cell viability of 1.12 ± 0.066.
With `O=C(O)C[C@H](O)C[C@H](O)/C=C/c1c(C2CC2)nc2ccccc2c1-c1ccc(F)cc1` [Pitavastatin Calcium] the figure was 0.761 ± 0.015; with `O=C(CCCN1CCC(O)(c2ccc(Cl)cc2)CC1)c1ccc(F)cc1` [Haloperidol], 0.897 ± 0.2.
The compound `CN1CCN(Cc2ccc(NC(=O)Nc3ccc(Oc4cc(NC(=O)C5CC5)ncn4)cc3)cc2C(F)(F)F)CC1` came in with a relative cell viability of 0.583 ± 0.0068.
`COc1cc2c(cc1OC)[C@@H]1Cc3ccc(OC)c(OC)c3CN1CC2` [Rotundine] gave a relative cell viability of 1.14 ± 0.088.
`Cc1c(OCC(F)(F)F)ccnc1C[S+]([O-])c1nc2ccccc2[nH]1` (stereo not given) [Lansoprazole] had a relative cell viability of 1.24 ± 0.048.
`O=C1CCc2c(ccc3ccccc23)O1` [Splitomicin] returned a relative cell viability of 1.13 ± 0.047.
With `CC[C@@H]1C(=O)N(C)c2cnc(Nc3ccc(C(=O)NC4CCN(C)CC4)cc3OC)nc2N1C1CCCC1` the figure was 0.792 ± 0.032; with `O=S(=O)(N=Cc1c(O)ccc2ccccc12)c1cccs1`, 1.2 ± 0.02.
For the compound `CCS(=O)(=O)N1CCC([C@@H](C)n2c(C)c(C(=O)NCc3c(OC)cc(C)[nH]c3=O)c3ccccc32)CC1`, the relative cell viability was 1.07 ± 0.055.
The value for `CO[C@H]1C[C@@H]2CC[C@@H](C)[C@@](O)(O2)C(=O)C(=O)N2CCCC[C@H]2C(=O)O[C@H]([C@H](C)C[C@@H]2CC[C@@H](OP(C)(C)=O)[C@H](OC)C2)CC(=O)[C@H](C)/C=C(\C)[C@@H](O)[C@@H](OC)C(=O)[C@H](C)C[C@H](C)/C=C/C=C/C=C/1C` [Ridaforolimus (Deforolimus, MK-8669)] was 0.86 ± 0.035; that for `COc1ccc2cc1Oc1ccc(cc1)C[C@H]1c3c(cc4c(c3Oc3cc5c(cc3OC)CCN(C)[C@@H]5C2)OCO4)CCN1C` [Cepharanthine] was 1.05 ± 0.016.
The value for `COc1ccc(COc2cc3oc(=O)c4cc(C(C)O)ccc4c3cc2OC)cc1` (stereo not given) [Palomid 529 (P529)] was 1.14 ± 0.025.
With `NC1=N[C@@]2(c3cc(NC(=O)c4ccc(F)cn4)ccc3F)COC[C@H]2CS1` the figure was 0.901 ± 0.022.
`Cc1ccc(-n2[nH]c(C)c(N=Nc3cccc(-c4cccc(C(=O)O)c4)c3O)c2=O)cc1C` [Eltrombopag] showed a relative cell viability of 0.973 ± 0.05.
With `Cc1ccc(-n2[nH]c(C)c(N=Nc3cccc(-c4cccc(C(=O)O)c4)c3O)c2=O)cc1C` [Eltrombopag Olamine] the figure was 1.07 ± 0.035; with `c1ccc(Cn2c(-c3ccc(OCC(C4CCNCC4)n4c(-c5ccccc5)nc5ccccc54)cc3)nc3ccccc32)cc1` (stereo not given) [Deltarasin], 1.116 ± 0.0025; with `CCC(=O)NCC[C@@H]1CCc2ccc3c(c21)CCO3` [Ramelteon], 1.15 ± 0.046.
For `COC1=CC(=O)C[C@@H](C)[C@]12Oc1c(Cl)c(OC)cc(OC)c1C2=O` [Griseofulvin], the relative cell viability is 1.12 ± 0.06.
With `CC(C)(C)c1cc(/C=C(\C#N)C(N)=S)cc(C(C)(C)C)c1O` [Tyrphostin AG 879], the relative cell viability was found to be 0.886 ± 0.065.
The value for `COc1ccc(-c2coc3cc(O)cc(O)c3c2=O)cc1` [Biochanin A] was 1.07 ± 0.027; that for `NS(=O)(=O)NCCNc1nonc1/C(=N/O)Nc1ccc(F)c(Br)c1` was 1.159 ± 0.0044.
Compound `O[C@@H](COc1cccc2ncccc12)CN1CCN(C2c3ccccc3[C@@H]3[C@H](c4ccccc42)C3(F)F)CC1` (stereo not given in full) yielded a relative cell viability of 1.14 ± 0.082.
The value for `OCC(O)CN1CCN(c2ccccc2)CC1` (stereo not given) [Dropropizine] was 1.092 ± 0.0047.
The value for `COc1ccccc1N1CCN(CCN2C(=O)CC3(CCCC3)CC2=O)CC1` was 1.009 ± 0.0049.
In the case of `CN(C)CCC(c1ccc(Cl)cc1)c1ccccn1` (stereo not given) [Chlorpheniramine Maleate], the relative cell viability was 1.05 ± 0.027.
The value for `CCCC(CCC)C(=O)O` [Divalproex Sodium] was 0.924 ± 0.19; that for `CCCC(CCC)C(=O)O` [Valproic acid sodium salt (Sodium valproate)] was 1.17 ± 0.054; that for `CN(C)[C@@H](CCOc1cccc2ccccc12)c1ccccc1` [Dapoxetine HCl] was 0.959 ± 0.0061.
The value for `CC(=O)NC(Cc1ccc(O)cc1)C(=O)NC(CCCN=C(N)N)C(=O)NC(Cc1ccccc1)C(N)=O` (stereo not given) was 0.828 ± 0.052; that for `O=C(NC1CCNCC1)c1n[nH]cc1NC(=O)c1c(Cl)cccc1Cl` was 0.528 and 0.423.
The value for `CC(C)c1noc(N2CCC(COc3ccc(-c4ccc(S(C)(=O)=O)cc4)nc3)CC2)n1` was 0.842 ± 0.012; that for `O=CN1CC/C(=C/c2ccc3c(c2)OCO3)C1=O` was 1.121 ± 0.0041.
As for `CC[C@H](Nc1ncnc2[nH]cnc12)c1nc2cccc(F)c2c(=O)n1-c1ccccc1` [CAL-101 (Idelalisib, GS-1101)], the relative cell viability turned out to be 1.13 ± 0.026.
In turn, `CCOc1cc(N2CCC(O)CC2)ccc1Nc1ncc2c(n1)N(C)c1ccccc1C(=O)N2C` had a relative cell viability of 1.05 ± 0.021.
Compound `S=C=Nc1cccc(NC(=S)NCCCCNC(=S)Nc2cccc(N=C=S)c2)c1` had a relative cell viability of 1.13 ± 0.05.
The value for `Fc1ccc2[nH]ccc2c1-c1nc(N2CCOCC2)c2sc(CN3CCN(CC4CC4)CC3)cc2n1` was 0.754 ± 0.025; that for `CC(CN1c2ccccc2Sc2ccccc21)N(C)C` (stereo not given) [Promethazine HCl] was 1.02 ± 0.013.
The value for `Cc1ccc(NC(=O)Nc2cc(C(F)(F)F)ccc2F)cc1Nc1ccc2c(c1)NC(=O)/C2=C\c1ccc[nH]1` was 1.13 ± 0.031; that for `CNC(=O)c1ccccc1Sc1ccc2c(/C=C/c3ccccn3)n[nH]c2c1` [Axitinib] was 0.59 ± 0.12; that for `CC1(C)CCCC2(C)C1CCC1(C)OC(=O)CC12` (stereo not given) [Sclareolide] was 1.15 ± 0.078.
With `CNC(=O)c1ccc(N2C(=S)N(c3cnc(C#N)c(C(F)(F)F)c3)C(=O)C23CCC3)cc1F` the figure was 1.1 ± 0.018; with `O=C1c2ccccc2-c2n[nH]c3cccc1c23`, 1.27 ± 0.0019; with `O=C(c1ccc(OCCN2CCCCC2)cc1)c1c(-c2ccc(O)cc2)sc2cc(O)ccc12` [Raloxifene HCl], 0.993 ± 0.15.
As to `COC1(c2sc3c(N4CCOCC4)nc(-c4cnc(N)nc4)nc3c2C)COC1`, the relative cell viability came out at 0.417 ± 0.014.
Turning to `CCOC(=O)C1=C(C)NC(C)=C(C(=O)OC)C1c1cccc([N+](=O)[O-])c1` (stereo not given) [Nitrendipine], the relative cell viability was 1.05 ± 0.12.
The compound `CC(C)C[C@H](NC(=O)CNC(=O)c1cc(Cl)ccc1Cl)B1OC(=O)CC(CC(=O)O)(C(=O)O)O1` (stereo not given in full) came in with a relative cell viability of 0.312 ± 0.0064.
With `CC1CCc2cc(F)cc3c(=O)c(C(=O)O)cn1c23` (stereo not given) [Flumequine] the figure was 0.878 ± 0.065.
